Assay results reported in the supplement of paper PMC3334620.
Over roughly 33,000 sequences, “E-score (-0.5 to 0.5)” has its median near -0.04; the highest 2% begin near 0.36. Some of the results follow.

molecular target: T1, Hmlalpha2 (UniProt P0CY09); test: PBM E-score (8-mer binding enrichment) (E-score (-0.5 to 0.5)); higher = stronger / more preferred TF binding; most listed sequences are background and not binding sites; conditions: protein concentration: 200 nM; construct: GST-full length
T1 sequence: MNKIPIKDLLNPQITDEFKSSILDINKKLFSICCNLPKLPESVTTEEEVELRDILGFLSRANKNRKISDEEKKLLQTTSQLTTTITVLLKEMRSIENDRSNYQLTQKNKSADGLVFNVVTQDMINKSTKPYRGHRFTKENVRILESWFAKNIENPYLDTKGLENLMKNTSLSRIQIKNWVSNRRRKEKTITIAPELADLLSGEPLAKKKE
How it was run: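 Masliner-normalised scans of fluorescent anti-GST signal were the basis for scoring. That signal came from GST-tagged yeast transcription factors applied at about 100-200 nM to double-stranded universal all-10-mer Agilent arrays on fresh or once-stripped slides. Each ungapped eight-base word, pooled with its reverse complement, received an E-score from the Universal PBM Analysis Suite.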

Sequence	PBM E-score
CACGATTA	0.28
AGTCTGAC	-0.218
GATGGCAC	-0.25
AAAACTGA	-0.0592
GAACTCAC	-0.0178
CTTGAAGC	-0.0461
ATAGGCGC	-0.124
ACTAAAGT	0.0015
AGGAAAGC	-0.203
CGACAATC	-0.19
ATTCCAGC	-0.0238
ACGTATAA	0.321
ACCCCTAG	-0.287
CCCCGTCA	-0.299
AGTCTTCC	-0.0857
GAATTTGC	-0.0777
GGTGAGAC	-0.249
CGGATGCA	-0.272
AACTGCAA	-0.0415
ATGTTCCC	0.0456
AGCACCAC	-0.192
CATAAAGA	0.198
CTACGAAA	-0.141
GCCGTGCC	-0.164
TCAGTACA	0.227

Sequence	PBM E-score
CTCTGACA	0.132
AATACCGT	-0.00384
CCGCGGAA	-0.123
CCCGGACC	-0.173
CACCGTGC	-0.00506
CCCGACCG	-0.316
CTAGTCCA	-0.155
GAATCGGA	-0.0698
GGCAACGA	0.0854
CGAAGGGA	-0.212
CGGTCTCC	-0.24
ACGATACG	0.103
CAACCCCA	-0.0316
CAAAGTGA	-0.0862
CAGACACC	-0.248
AGTTTGAT	-0.0815
AACGCGAG	0.107
TAGGATCA	-0.0383
ATGTCAAA	0.354
AAACACTT	0.141
GCTGCAGA	0.0784
GACACTTA	0.106
GCAACCCA	0.0135
GCCCCGGA	-0.354
ACACGCAA	0.35

Sequence	PBM E-score
AGACGTAT	0.0644
GGCGCACC	-0.268
CCAAACCA	-0.126
AGTGATCA	-0.111
GTTATTAA	0.323
AACTGCAG	-0.0779
ATAAAGGC	-0.216
ACCCGTAC	-0.091
AGAACTCA	-0.00582
AGTAGTGG	-0.0672
CGGGTCTA	0.0357
ACTGACCC	-0.232
ACATGTCA	0.402
AGGCGGGC	-0.35
AATTAGAA	0.0299
ATCGGAGC	-0.31
ATAAGGGA	-0.0894
AGGCTCGC	-0.208
AACGTAAT	0.379
CGAAGGAA	-0.0436
ATTCTAAA	0.214
AGATTAAA	0.218
CCATTGAC	-0.0334
CCAGCCGC	-0.247
AGAGTACG	-0.027

Sequence	PBM E-score
TCCGTTCA	0.0122
GAGGGACA	-0.338
ATGTTAAT	0.447
CATGCTCG	0.0136
CAAAGGGC	-0.183
ATGGGACG	-0.19
GTAGTATA	0.233
AAATGGCA	-0.0457
AAGGCTTA	-0.071
AGTGTTAC	0.221
AGGCGCCG	-0.0461
ACCGCATG	0.0197
ACGCTTGA	0.175
ATTACCTG	0.192
CCGCAGCA	-0.179
CTTTTAAA	0.136
AAGGCCGT	-0.14
AAATGGGG	-0.12
ATAGGACA	-0.131
CCACGTTA	0.239
ACTATCCA	-0.16
CTAGAGTA	-0.0114
AACCCTTC	-0.176
CTCCCTCA	-0.246
ATCAATAG	-0.00766

Sequence	PBM E-score
AATTCGTC	-0.00347
ATGGACCA	0.0842
CGGCGGAA	-0.204
AATCTAAT	0.144
ATCCGTGC	0.0886
GTGTGTTA	0.435
CGCGCAAC	0.00267
GCACTGAC	-0.107
GAGGACCA	-0.111
CATAGGAA	-0.152
GGCTATGA	-0.141
TATTTGGA	-0.0484
CCCAGACA	-0.0474
AGTCCTCC	-0.217
CCACGAGA	-0.244
ACACCAGT	-0.084
AGAACCCA	-0.135
GCCCTGGA	-0.335
CCCGATGC	-0.314
ACACAAAC	0.303
CCGAATCA	-0.159
GCATGCAC	0.101
GCCATTAA	-0.00827
TAGGGGAA	-0.236
ACAGTCCC	-0.307

Sequence	PBM E-score
ACCCCATA	-0.178
CCTTGAAG	-0.0345
AGAAGGAT	-0.0473
GCGTTATA	0.218
GACTCCCA	-0.265
CACATCAA	0.0801
TACGTGCA	0.169
CATGGGTC	-0.121
GAATCAAC	0.174
AGCTCTAG	-0.0541
GACACGAA	0.2
GGGTCGTA	-0.0117
CTCAGGCC	-0.186
CGTGCCTA	-0.236
CGTATATC	0.0485
ACCGCAAC	0.121
ATCCCCCC	-0.435
CGCCAGGC	-0.143
ACTCCGCT	-0.0163
AGTACTCG	0.193
CTTTTCCA	-0.265
AGTTCACA	0.151
AGGTTAGA	-0.226
TCAATCAA	0.183
ATGGAGTG	-0.12

Sequence	PBM E-score
ACTATCAT	0.0111
AAACGGCT	-0.193
AAGTGAAG	-0.0328
TACCACAA	0.237
AGCAGGCA	-0.21
TCCTAACA	0.246
AGTCGATC	-0.217
AAAACACC	0.16
ACGACAAA	0.171
ACGTAGCG	0.0984
CTTCAGCC	-0.232
CAAGGTCG	-0.107
AAGAGTCT	-0.155
CGAGTTAA	0.291
CGGGCCTC	-0.229
CACTGAAG	-0.0323
AATTGGTA	0.0935
CCATTAGC	-0.0822
GCTGTCTA	-0.118
CGATTCAG	-0.181
TCCCGACA	0.00597
AATAAGAA	0.0407
AGACTTCA	-0.0211
GTCCTCTA	-0.191
AAAGAATA	0.195

Sequence	PBM E-score
ATGGGCCC	-0.236
CAACGGAC	0.0644
AGGGCGTC	-0.174
CTTCGTGC	-0.0253
ATTTTACA	0.41
CTCCCCTA	-0.324
CGCCGCAG	-0.326
CGCTTGCA	-0.0244
GGCGACTA	-0.154
CTCAATCC	0.0989
TAGCCTCA	-0.192
ACGCCAGC	-0.0249
CCGCTGCC	-0.132
CAAATACC	-0.079
ATGCGAGA	0.0252
ACGACGCC	-0.0954
CATCAAAG	-0.124
AAACTATA	0.195
AAACCTTA	0.115
ACTACGTG	0.144
CACCGTGG	-0.136
CAGTCCGC	-0.294
AGCTAAAG	-0.0118
GGCTGCGA	-0.265
ACATATAC	0.314

Sequence	PBM E-score
CGGCAGGC	-0.153
AGGCAAGG	-0.27
ACTGGGAT	0.0104
ATGGACGG	-0.00065
GGAGTCGA	-0.309
CAGATCAC	0.0461
CGTACGAC	0.0253
CGTAATTA	0.389
CGATGGAG	-0.202
GTGATTCA	0.107
CGGCGGGC	-0.316
ACGCTGGG	-0.262
GGTAGTTA	0.0255
CGCCTAGC	-0.3
GCACGCAA	-0.0466
AGTAACAA	0.288
CGCCTACA	0.117
CTACAGAG	0.184
GGAATATA	0.0296
